Measurements: PubChem BioAssay AID485360 (National Center for Advancing Translational Sciences (NCATS), 2010)
In all, about 230,000 compounds went through this assay and about 1,500 (0.65%) were called active. Inconclusive results, whose numbers are uncertain, are shown with a selection of clear calls. The call rests on the fitted dose curve; in most records, active means well fitted inhibition curve with a large enough effect; inconclusive means small, poorly fitted or top-dose-only effect; inactive means no such curve, though single readings can be large or run the other way. A potency beside an inconclusive call is a rough fit, not a confirmed value.

Biological target: Lethal(3)malignant brain tumor-like protein 1 (Homo sapiens) (UniProt Q9Y468)
Assay: qHTS Assay for the Inhibitors of L3MBTL1; further: nearly all actives have a fitted effect of over 60% in size
Conditions: AlphaScreen L3MBTL1–H3K9me1 peptide binding; activity, negative = inhibition: at 57.1 µM (top of the series)
Outline: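 Read-out is AlphaScreen signal from streptavidin donor and nickel chelate acceptor beads (10 ug/mL final each) bridging L3MBTL1 (50 nM) and biotinylated K9-monomethylated H3(1-15) peptide (75 nM), after 30 min compound exposure at room temperature.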
On the % scale 0 is the no-effect control and ±100 the full control effect; potency means the concentration at half of the fitted maximal effect; tags describe the fitted curve by direction and shape.

Chain of UniProt Q9Y468 (Q9Y468 whole entry, looked up): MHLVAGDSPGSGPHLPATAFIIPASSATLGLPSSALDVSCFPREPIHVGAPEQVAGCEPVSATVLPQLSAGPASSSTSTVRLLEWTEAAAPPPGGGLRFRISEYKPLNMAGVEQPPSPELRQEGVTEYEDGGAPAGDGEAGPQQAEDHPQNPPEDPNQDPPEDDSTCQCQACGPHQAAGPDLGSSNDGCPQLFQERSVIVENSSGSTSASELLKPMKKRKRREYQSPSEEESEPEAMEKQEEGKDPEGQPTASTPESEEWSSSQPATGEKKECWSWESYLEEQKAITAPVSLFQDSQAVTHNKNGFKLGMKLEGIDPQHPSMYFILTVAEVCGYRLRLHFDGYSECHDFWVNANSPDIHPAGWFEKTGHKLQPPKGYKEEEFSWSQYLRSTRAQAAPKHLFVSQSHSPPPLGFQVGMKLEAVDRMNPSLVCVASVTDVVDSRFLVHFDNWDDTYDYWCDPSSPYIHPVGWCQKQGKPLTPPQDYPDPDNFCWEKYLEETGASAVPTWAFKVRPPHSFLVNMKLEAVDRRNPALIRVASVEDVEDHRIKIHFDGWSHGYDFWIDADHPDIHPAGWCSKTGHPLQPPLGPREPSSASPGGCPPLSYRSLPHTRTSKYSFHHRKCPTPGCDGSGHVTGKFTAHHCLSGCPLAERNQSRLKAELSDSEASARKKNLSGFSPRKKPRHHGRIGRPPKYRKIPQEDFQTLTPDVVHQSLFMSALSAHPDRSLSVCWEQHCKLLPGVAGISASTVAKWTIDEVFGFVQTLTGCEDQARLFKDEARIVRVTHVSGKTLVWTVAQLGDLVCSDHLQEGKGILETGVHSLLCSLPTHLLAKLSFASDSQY

SMILES | Potency | activity, negative = inhibition
CCn1c(CSc2nnc(-c3cccnc3)n2-c2ccccc2C)nc2cc(C(=O)O)ccc21 | inconclusive: 35.5 µM [inhibitor, single point] | –
CC(C)N(C(=O)CSc1nnc(NC(=O)Cc2cccs2)s1)C(C)C | inconclusive: 5.01 µM [inhibitor, partial curve] | –
CC(C)OC(=O)c1cc2ccccc2[nH]1 | inconclusive: 10 µM [inhibitor, full curve, poor fit] | –
CCOC(=O)c1c(/N=C/c2ccc(C)cc2O)sc2c1CCC2 | inactive | –
CN(C)c1ccc(C(CNC(=O)c2ccc(C#N)cc2)c2c[nH]c3ccccc23)cc1 (stereo unspecified) | inconclusive: 20 µM [inhibitor, single point] | –
CNc1cccc2c1C(=O)c1ccccc1C2=O | active: 8.91 µM | –
CC(OC(=O)c1ccc2ncsc2c1)C(=O)Nc1cccc(Cl)c1 (stereo unspecified) | inconclusive: 39.8 µM [inhibitor, single point] | –
C=CCNc1cc(N2CCCC2)ccc1[N+](=O)[O-] | inconclusive: 25.1 µM [inhibitor, partial curve] | –
CCOc1cc(/C=C(\C#N)C(=O)Nc2ccccc2C(=O)O)ccc1OC(=O)c1ccc(C)cc1 | inactive | –
C/C(CC(=O)Nc1ccc(Cl)cc1)=N\NC(=O)C(=O)N1CCCCC1 | inactive | –
CCOc1ccc(CCNc2nc3ccccc3n3cnnc23)cc1OCC | inactive | –
Cc1nc2cc(C(=O)O)ccc2n1C1CCCCC1 | inconclusive: 6.31 µM [inhibitor, single point] | –
CCOc1ccccc1NC(=O)CSc1nnc(-c2ccco2)n1Cc1ccco1 | inactive | –
Cc1cnc(C)c(N2CCN(Cc3nc(-c4ccccc4)no3)CC2)n1 | inconclusive: 22.4 µM [inhibitor, partial curve] | –
O=[N+]([O-])c1cc(/C=N/N/C(=N/c2ccccn2)c2ccccn2)ccc1O | inconclusive: 10 µM [inhibitor, partial curve] | –
CC(C)CC1CC(=O)OC1(C)C(=O)CSc1nc2ccccc2s1 (stereo unspecified) | inactive | –
O=c1/c(=C/c2ccco2)sc2nc(-c3ccccc3Br)nn12 | inconclusive: 28.2 µM [inhibitor, single point] | –
N#CCCN1CCN(S(=O)(=O)c2ccc(S(=O)(=O)NC3CCCC3)cc2)CC1 | inactive | –
NC(=O)C1CCCN(C(=O)c2ccc(-c3cccc(Cl)c3Cl)o2)C1 (stereo unspecified) | inactive | –
O=C(CCNc1cccc(F)c1)c1cc2ccccc2o1 | inconclusive: 0.316 µM [inhibitor, full curve] | –
CCOc1ccccc1N1CCN(C(=O)CC(C)C)CC1 | inconclusive: 0.794 µM [inhibitor, single point] | –
O=C(NC(=S)Nc1ccc(N2CCCCC2)cc1)c1cccs1 | inconclusive: 28.2 µM [inhibitor, single point] | –
CCn1c(/C=C2\C(=O)N(C(C)C)c3ccccc32)nc2ccccc2c1=O | inconclusive: 22.4 µM [inhibitor, single point] | –
CC(=O)OCCCNc1cc(Sc2nc3ccccc3s2)c2nonc2c1[N+](=O)[O-] | inactive | –

SMILES | Potency | activity, negative = inhibition
CC(C)NCc1cc(Br)ccc1OCc1ccccc1 | inactive | –
CC(C)(C)c1nnc(N/N=C/c2ccccc2O)n(N)c1=O | active: 15.8 µM | –
O=C(CNC(=O)c1ccc(Br)o1)Nc1ncccc1O | inconclusive: 35.5 µM [inhibitor, single point] | –
O=C(CCCCn1c(=O)[nH]c2ccsc2c1=O)NCc1ccc2c(c1)OCO2 | inactive | –
COC(=O)CN1C(=O)C(O)(CC(=O)c2ccc(Cl)cc2)c2ccccc21 (stereo unspecified) | inconclusive: 31.6 µM [inhibitor, single point] | –
O=C(O)C1C2C=CC(O2)C1C(=O)NC1CCCc2ccccc21 (stereo unspecified) | inconclusive: 39.8 µM [inhibitor, single point] | –
CC(C)OC(=O)CSc1nnc(CNc2cccc(Cl)c2)n1C | inconclusive: 7.08 µM [inhibitor, single point] | –
CC(=O)Nc1ccc(S(=O)(=O)NNC(=O)C(=O)NNc2ccccn2)cc1 | inactive | –
Cc1c(/C(O)=C2/C(=O)C(=O)N(Cc3cccnc3)C2c2ccccn2)cnn1-c1ccccc1 (stereo unspecified) | inactive | –
O=C(COc1ccc(Cl)cc1)Nc1nnc(-c2ccco2)o1 | inconclusive: 8.91 µM [inhibitor, full curve, poor fit] | –
COc1ccc(C2C3=C(CC(C)(C)CC3=O)Nc3c2c(=O)n(C)c(=O)n3C)cc1OC (stereo unspecified) | inactive | –
Cc1cc(N=Nc2ccc(Cl)cc2)cc(CN2CCOCC2)c1O | inconclusive: 0.708 µM [inhibitor, full curve, poor fit] | –
O=[N+]([O-])c1c(C(Cl)Cl)nn(-c2ccccc2)c1N1CCCC1 | inconclusive: 35.5 µM [inhibitor, single point] | –
Cc1ccc(CN2CCN(/N=C/c3ccc(C(=O)O)cc3)CC2)c(C)c1 | inactive | –
O=C(NCc1ccco1)C1CCCCN1S(=O)(=O)c1ccc(F)cc1 (stereo unspecified) | inactive | –
Cc1ccc(S(=O)(=O)N=S(CCO)CCO)cc1 | inactive | –
COC(=O)C1=NN(c2ccccc2)C2(S1)SC(C(C)=O)=C(C)N2c1ccccc1 (stereo unspecified) | inconclusive: 31.6 µM [inhibitor, single point] | –
O=c1cc(CSc2ccccc2)nc(-c2ccccc2)[nH]1 | inconclusive: 8.91 µM [inhibitor, single point] | –
COc1ccc2[nH]c(=O)c(CN(Cc3nnnn3Cc3ccco3)C3CCCCC3)cc2c1 | inconclusive: 39.8 µM [inhibitor, single point] | –
Cc1cccc(-c2c(O)cc(=O)[nH]c2Cl)c1 | inconclusive: 20 µM [inhibitor, partial curve] | –
O=C(O)c1cccc(N2C(=O)/C(=C/c3ccc(SCc4ccc(Cl)cc4)o3)SC2=S)c1 | active: 3.55 µM | –
Cc1c(-n2c(O)c(C3=c4ccccc4=NC3=O)sc2=S)c(=O)n(-c2ccccc2)n1C | inactive | –
Cc1cc(Nc2ccccc2)c2c([N+](=O)[O-])c(C)cc(C)c2n1 | inconclusive: 39.8 µM [inhibitor, single point] | –
Cc1ccc(/C=N/N=C2/NC(=O)CS2)o1 | inconclusive: 39.8 µM [inhibitor, partial curve, poor fit] | –

SMILES | Potency | activity, negative = inhibition
CCc1nc(C)c(-c2ccccc2)c(=O)[nH]1 | inconclusive: 4.47 µM [inhibitor, full curve] | –
Cc1cc(C)cc(N=C2NC(=O)/C(=C/c3cccs3)S2)c1 | inactive | –
CC(C(=O)Nc1ccc(N2CCOCC2)cc1)N1C(=O)NC(C)(C)C1=O (stereo unspecified) | inconclusive: 0.794 µM [inhibitor, single point] | –
O=c1c2ccccc2c(/C=N/n2cnnc2)c(O)n1-c1ccccc1 | inactive | –
CCOC(=O)C1=C(C)OC2(O)c3ccccc3C(=O)C12O (stereo unspecified) | inconclusive: 17.8 µM [inhibitor, partial curve] | –
COc1ccccc1-c1c(C)nn2c(N3CCCCCC3)cc(C)nc12 | inconclusive: 39.8 µM [inhibitor, single point] | –
Cc1cc(=O)n2nc(N3CCC(C(=O)N4CCN(C)CC4)CC3)sc2n1 | inconclusive: 0.708 µM [inhibitor, single point] | –
O=C(COC(=O)C1CC(=O)N(Cc2ccco2)C1)c1ccc(OC(=O)c2ccco2)cc1 (stereo unspecified) | active: 17.8 µM | –
COc1ccc(N2CCN(c3oc(COc4ccccc4)nc3C#N)CC2)cc1 | inconclusive: 14.1 µM [inhibitor, partial curve] | –
Cc1nc([N+](=O)[O-])nn1C12CC3CC(CC(Cl)(C3)C1)C2 | inconclusive: 39.8 µM [inhibitor, single point] | –
COc1cc(OC)c2c(O)c3c(c(-c4c5c(c(O)c6c(OC)cc(OC)cc46)CO[C@@H](C)[C@H]5O)c2c1)[C@H](O)[C@H](C)OC3 | inconclusive: 25.1 µM [inhibitor, single point] | –
O=C(O)c1ccc(Cl)c(S(=O)(=O)Nc2ccc3[nH]c(=O)[nH]c3c2)c1 | inconclusive: 17.8 µM [inhibitor, partial curve] | –
C=CCNC(=O)c1ccccc1NC(=O)c1ccccc1C | inconclusive: 5.01 µM [inhibitor, single point] | –
CCC(C)C(=O)Nc1nc2c(s1)C(=O)CC(C)(C)C2 (stereo unspecified) | inconclusive: 39.8 µM [inhibitor, single point] | –
Cn1c(=O)[nH]c(=O)c2c1nc(N1CCN(CCO)CC1)n2Cc1ccccc1 | inactive | –
CCC(CC)c1nnc(NC(=O)C2CC(=O)N(c3ccc4c(c3)OCCO4)C2)s1 (stereo unspecified) | inconclusive: 28.2 µM [inhibitor, single point] | –
CC1CCCC(NS(=O)(=O)c2cc3c(cc2Cl)NC(=O)CO3)C1C (stereo unspecified) | inactive | –
CCOC(=O)C(C(=O)OCC)C(Nc1ccc(Br)cc1)c1ccccc1 (stereo unspecified) | inactive | –
C#CCOCCOCCOCCNc1nc(N2CCN(C(=O)[C@H](CCCCN)n3cc([C@@H](N)CO)nn3)CC2)nc(N2CCN(C(=O)[C@H](Cc3cc4ccccc4[nH]3)n3cc([C@@H](N)Cc4ccc(O)cc4)nn3)CC2)n1 | inconclusive: 20 µM [inhibitor, partial curve] | –
CCCCC[C@H](O)/C=C/C1=C(CCCCCCC(=O)O)C(=O)CC1 | – | inconclusive: -93.6% [inhibitor]
CCN(CC)c1ccc(NC(=O)c2cccc(C)c2OC)c(C)c1 | inconclusive: 25.1 µM [inhibitor, partial curve] | –
COc1cc(C)c2c(c1C=O)Oc1c(c(C)c(O)c3c1C(O)OC3=O)OC2=O (stereo unspecified) | inconclusive: 31.6 µM [inhibitor, single point] | –
CCOc1ccccc1N=C1SC(CC(=O)Nc2ccc(OC)cc2OC)C(=O)N1CCC1=CCCCC1 (stereo unspecified) | inconclusive: 25.1 µM [inhibitor, partial curve] | –
